Test results from publication PMC4336329 (PLoS ONE, 2015).
Screen size: about 310,000 compounds; about 2,200 (0.71%) showed an effect of 50% or more. The effect is printed as a negative number. The list shows a part of the results. Where a SMILES comes first, the peptide text is derived from it. [ ]: non-standard residue; d: D form. pGlu = O=C1CC[CH](C(=O)O)N1

Molecular target: human ether-à-go-go-related gene (hERG) potassium channel (human, UniProt Q12809)
Test: primary screen, population patch clamp on CHO cells stably expressing hERG

human ether-à-go-go-related gene (hERG) potassium channel, sequence (Q12809 whole entry, looked up): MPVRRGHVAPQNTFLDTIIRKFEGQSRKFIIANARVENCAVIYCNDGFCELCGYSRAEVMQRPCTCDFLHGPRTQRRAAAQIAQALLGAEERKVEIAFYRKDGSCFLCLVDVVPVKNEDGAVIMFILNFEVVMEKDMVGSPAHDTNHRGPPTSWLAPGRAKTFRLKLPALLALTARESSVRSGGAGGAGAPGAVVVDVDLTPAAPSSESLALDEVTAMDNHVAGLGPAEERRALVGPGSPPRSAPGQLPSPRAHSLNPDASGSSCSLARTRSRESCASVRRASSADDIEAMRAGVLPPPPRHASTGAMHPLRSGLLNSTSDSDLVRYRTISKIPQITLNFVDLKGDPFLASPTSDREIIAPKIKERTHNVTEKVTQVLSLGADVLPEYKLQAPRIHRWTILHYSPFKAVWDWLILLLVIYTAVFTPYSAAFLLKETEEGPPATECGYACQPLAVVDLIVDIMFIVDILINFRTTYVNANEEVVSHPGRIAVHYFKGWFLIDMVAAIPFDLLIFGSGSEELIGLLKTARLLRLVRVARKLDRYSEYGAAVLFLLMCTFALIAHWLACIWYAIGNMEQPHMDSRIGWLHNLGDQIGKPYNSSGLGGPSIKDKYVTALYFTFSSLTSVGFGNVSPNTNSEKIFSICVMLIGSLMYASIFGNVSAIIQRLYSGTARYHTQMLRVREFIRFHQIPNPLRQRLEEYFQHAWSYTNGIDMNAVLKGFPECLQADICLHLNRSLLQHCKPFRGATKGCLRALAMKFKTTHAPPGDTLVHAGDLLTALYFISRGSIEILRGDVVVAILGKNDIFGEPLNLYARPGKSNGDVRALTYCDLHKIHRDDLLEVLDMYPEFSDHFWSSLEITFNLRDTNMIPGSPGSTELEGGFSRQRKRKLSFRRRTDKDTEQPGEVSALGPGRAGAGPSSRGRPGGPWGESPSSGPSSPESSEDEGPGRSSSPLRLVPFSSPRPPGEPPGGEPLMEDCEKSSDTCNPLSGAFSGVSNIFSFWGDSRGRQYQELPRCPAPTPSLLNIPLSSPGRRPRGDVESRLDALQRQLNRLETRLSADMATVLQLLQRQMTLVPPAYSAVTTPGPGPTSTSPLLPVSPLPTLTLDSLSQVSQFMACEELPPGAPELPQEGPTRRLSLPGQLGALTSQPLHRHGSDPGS

Going from `CCCCN(C(=O)c1cc2c(s1)CCCCC2)c1c(N)n(CCC)c(=O)[nH]c1=O` to `C/C(N)=C(/C#N)C(=O)COC(=O)c1cc2c(s1)CCCC2`, the “hERG current change (%, negative = inhibition) at 1uM” value falls from 12.7% to -18.2%.

Going from `COc1cccc(C(=O)Nc2cccc(S(=O)(=O)NC3=NCCC3)c2)c1` to `Cc1cccc(NC(=O)c2ccc(S(=O)(=O)N3CCCCC3)cc2)n1`, the “hERG current change (%, negative = inhibition) at 1uM” value falls from 16.7% to 10.9%.

Going from `O=C(CS(=O)(=O)c1cn(CC(=O)N2CCOCC2)c2ccccc12)Nc1ccccc1F` to `CCOC(=O)c1ccccc1NC(=O)c1cc(S(=O)(=O)N2CCOCC2)ccc1F`, the “hERG current change (%, negative = inhibition) at 1uM” value falls from 12.6% to 6.31%.

Compared with `O=C(CCCn1c(SCC(=O)c2ccc(F)cc2)nc2ccccc2c1=O)NCc1ccco1`, `CC(=O)Nc1ccc(C(=O)CSc2nnc(Cc3ccccc3)o2)cc1` is lower in “hERG current change (%, negative = inhibition) at 1uM” value: 7.55% for the first, -2.88% for the second.

Going from `O=C(N/N=C/c1ccccc1)c1cc(-c2ccc3c(c2)OCO3)n[nH]1` to `O=C(N/N=C\C=C\c1ccc2c(c1)OCO2)C1COc2cc3ccccc3cc2O1` (centres unmarked), the “hERG current change (%, negative = inhibition) at 1uM” value rises from 6.22% to 9.47%.

Compared with `COCCCN1C(=O)C(=O)/C(=C(/O)c2ccc3c(c2)OCCO3)C1c1ccc(C(=O)OC)cc1` (centres unmarked), `COc1cc2c(=O)n(-c3ccc(C)cc3)c(=O)n(CC(=O)c3ccc4c(c3)OCO4)c2cc1OC` is higher in “hERG current change (%, negative = inhibition) at 1uM” value: 8.36% for the first, 12% for the second.

Compared with `CCOC(=O)c1sc(NC(=O)C2CC(=O)N(c3ccccc3OC)C2)nc1C` (centres unmarked), `CCOC(=O)c1sc(NC(=O)CSCc2c(C)noc2C)nc1C` is higher in “hERG current change (%, negative = inhibition) at 1uM” value: 2.1% for the first, 3.46% for the second.

Going from `COc1ccc2oc(C(=O)OCC(=O)/C(C#N)=C(\C)N)c(C)c2c1` to `COc1ccc(OC)c(C2C(C(=O)c3cccs3)=C(O)C(=O)N2CCN(C)C)c1` (centres unmarked), the “hERG current change (%, negative = inhibition) at 1uM” value falls from 11.1% to 9.34%.

First: Cc1nn(C)cc1C(=O)c1ccccc1
Second: O=C(OCC(=O)c1ccc[nH]1)c1ccccc1
The “hERG current change (%, negative = inhibition) at 1uM” value of the first is higher: 14% for the first, 11.6% for the second.

Compared with `Cc1nc(/C(N)=N/OC(=O)c2ccccc2Cl)c(C(F)(F)F)o1`, `CCOC(=O)c1ccc(NC(=O)CSc2nnc(C)n2-c2ccccc2)cc1` is lower in “hERG current change (%, negative = inhibition) at 1uM” value: 12.5% for the first, 7.95% for the second.

Going from `CC(=O)OC(COc1ccccc1)Cn1cnc2cc(C)c(C)cc21.Cl` (centres unmarked) to `COc1ccc(OC)c(S(=O)(=O)n2nc(-c3ccccc3)cc2N)c1`, the “hERG current change (%, negative = inhibition) at 1uM” value falls from 11.6% to 0.508%.

Compared with `CC(C)CC(NC(=O)C(CO)NC(=O)C1CCC(=O)N1)C(N)=O` (stereo not drawn) ([pGlu]-Ser-Leu-NH2; configuration not given here), `COC(=O)CC(NC(=S)N1CC2C[C@@H](C1)Cn1c2cccc1=O)C(=O)OC` (some centres unmarked) is lower in “hERG current change (%, negative = inhibition) at 1uM” value: 11.9% for the first, 11% for the second.

Going from `C=CCn1c(SCC(=O)Nc2nc(C)cs2)nnc1C(CO)NC(=O)c1ccccc1` (centres unmarked) to `CC(=O)Nc1nnc(SCC(=O)NCCOc2ccccc2)s1`, the “hERG current change (%, negative = inhibition) at 1uM” value falls from 5.97% to 3.75%.

First: Br.CC1CCN(Cc2nnnn2-c2cccc([N+](=O)[O-])c2)CC1
Second: COc1ccc(-n2nnnc2SCC(=O)Nc2cc(OC)c([N+](=O)[O-])cc2C)cc1
The “hERG current change (%, negative = inhibition) at 1uM” value of the first is lower: 1.18% for the first, 23.2% for the second.

First: Cc1csc(Nc2ccccc2)n1
Second: Clc1ccc(Cc2ccccc2)nn1
The “hERG current change (%, negative = inhibition) at 1uM” value of the first is higher: 14.3% for the first, 9.13% for the second.

Compared with `C=CCc1cc(Cl)ccc1OCCCNCCO.O=C(O)C(=O)O`, `O=C(CCl)NCCCN(C(=O)C(Cl)Cl)c1ccc([N+](=O)[O-])cc1` is lower in “hERG current change (%, negative = inhibition) at 1uM” value: 16.1% for the first, 6.22% for the second.

Compared with `Cc1cccc(CSc2nnc(CCCCCNC(=O)OC(C)(C)C)o2)c1`, `Cc1cccc(OCC(=O)NCCNC(=O)c2cnccn2)c1` is higher in “hERG current change (%, negative = inhibition) at 1uM” value: 7.06% for the first, 14% for the second.

Going from `CCOC(=O)CSc1nc2c(sc(=S)n2-c2ccccc2OC)c(=O)n1-c1ccccc1OC` to `CCOC(=O)c1ccccc1NC(=O)CN(c1ccccc1OC)S(C)(=O)=O`, the “hERG current change (%, negative = inhibition) at 1uM” value falls from 12.6% to -1.2%.

First: CCOC(=O)c1ccc(Nc2cc3ccccc3c(=O)[nH]2)cc1
Second: Cc1ccc(OCC(=O)Nc2ccc(Cl)cc2)c([N+](=O)[O-])n1
The “hERG current change (%, negative = inhibition) at 1uM” value of the first is higher: 11.3% for the first, 8.73% for the second.

Going from `Cc1cc2c(cc1C)CSC(c1c(O)ccc3ccccc13)SC2` to `COc1ccc(-c2nc(N)ncc2-c2ccccc2OC)c(O)c1`, the “hERG current change (%, negative = inhibition) at 1uM” value falls from 15.9% to 11.6%.

Compared with `CC(C)N(CCNC(=O)COc1ccc2oc3c(c2c1)CCCC3)C(C)C`, `COc1ccc(CCC(=O)NCCS(=O)(=O)N2CCN(c3ccccc3OC)CC2)cc1` is higher in “hERG current change (%, negative = inhibition) at 1uM” value: -52.7% for the first, 6.96% for the second.

Compared with `O=C(CSc1ncccn1)c1ccccc1Br`, `CN(Cc1nc(-c2ccccn2)no1)S(=O)(=O)c1ccccc1` is higher in “hERG current change (%, negative = inhibition) at 1uM” value: -1.67% for the first, 10.5% for the second.

Going from `NNc1nc2sc3c(c2c(=O)n1Cc1ccccc1)CCC3` to `O=C(Nc1ccccc1)C1CC(=O)N(Cc2ccccc2)C1` (centres unmarked), the “hERG current change (%, negative = inhibition) at 1uM” value falls from 11.1% to 2.48%.

First: CC(C)C(=O)c1c(C(C)C)nn2ccccc12
Second: CC1=CC(C)(C)Nc2ccccc21.Cl
The “hERG current change (%, negative = inhibition) at 1uM” value of the first is higher: 12.6% for the first, 10.3% for the second.

Compared with `C=CCSc1nc2nc(C)cc(C)n2n1`, `CCOc1ccc(OCCSc2nc(C)cc(=O)[nH]2)cc1` is lower in “hERG current change (%, negative = inhibition) at 1uM” value: 8.28% for the first, 3.33% for the second.

First: CCOC(=O)c1cc(NC(=O)CC(C)(C)CC(=O)O)ccc1N1CCCCC1
Second: CC(OC(=O)c1cccc(S(=O)(=O)N2CCCCCC2)c1)C(=O)Nc1ccc(S(N)(=O)=O)cc1 (centres unmarked)
The “hERG current change (%, negative = inhibition) at 1uM” value of the first is higher: 15.5% for the first, 14.8% for the second.

Going from `O=c1cc(-c2ccccc2)[nH]n1-c1ccc([N+](=O)[O-])cc1` to `Cc1ccc(-n2nnnc2SC(C)C(=O)Nc2ccccc2-c2ccccc2)cc1` (centres unmarked), the “hERG current change (%, negative = inhibition) at 1uM” value falls from 9.17% to 3.07%.

First: CCOC(=O)N1CCN(c2nc(-c3ccccc3)c3ccccc3n2)CC1
Second: CCN1CCN(c2nc3ccccc3nc2C(C#N)S(=O)(=O)c2ccc(C)cc2)CC1 (centres unmarked)
The “hERG current change (%, negative = inhibition) at 1uM” value of the first is higher: 5% for the first, -0.395% for the second.

First: O=C(N1CCCC1)C12CC3CC(CC(C3)C1)C2
Second: O=C(C1CCCCC1)N1CCN(c2ccnc3cc(Cl)ccc23)CC1
The “hERG current change (%, negative = inhibition) at 1uM” value of the first is higher: 11.5% for the first, -27.1% for the second.

Going from `O=C(/C=C/c1ccco1)Nc1ccccc1N1CCOCC1` to `Cc1onc(-c2ccccc2Cl)c1C(=O)N1CCN(C(=O)c2ccco2)CC1`, the “hERG current change (%, negative = inhibition) at 1uM” value falls from 7.96% to 3.6%.

Compared with `CCC/C=N/Nc1nnc(Cc2ccc(OC)c(OC)c2)c(=O)[nH]1`, `COc1ccc(CCNc2oc(Cc3cccc4ccccc34)nc2C#N)cc1OC` is lower in “hERG current change (%, negative = inhibition) at 1uM” value: 25.4% for the first, 3.56% for the second.

Going from `COc1ccc(CNC(=O)CN(C(=O)c2csnn2)c2ccccc2F)cc1` to `O=C(COc1ccc2c(-c3ccccc3)cc(=O)oc2c1)NCc1cccs1`, the “hERG current change (%, negative = inhibition) at 1uM” value rises from 16.2% to 18.3%.

Going from `Cc1ccc(C)c(NC(=O)CC2Oc3ccccc3NC2=O)c1` (centres unmarked) to `COc1ccccc1OCC(=O)Sc1ccc(C)cc1`, the “hERG current change (%, negative = inhibition) at 1uM” value rises from 5.54% to 37.1%.

First: Cc1ccc(-c2csc(Cc3nc(-c4ccc5c(c4)CCC(=O)N5)cs3)n2)cc1
Second: COc1ccc(-c2n[nH]c3c2CN(C(=O)c2ccc(F)cc2)CC3)cc1
The “hERG current change (%, negative = inhibition) at 1uM” value of the first is higher: -1.13% for the first, -7.22% for the second.

First: CCn1cc(C(=O)N[C@H](C(=O)NCCN2CCOCC2)C(C)C)c(=O)c2cc3c(cc21)OCO3
Second: CC(C)C(NC(=O)c1ccc(F)cc1)C(=O)NC1(C)CCS(=O)(=O)C1 (centres unmarked)
The “hERG current change (%, negative = inhibition) at 1uM” value of the first is higher: 23.4% for the first, 8.95% for the second.

Going from `CCOC(=O)CN1C(=O)N[C@@H](CCc2ccccc2)[C@H](C(=O)OC)[C@H]1C` to `Cc1ccccc1SCC(=O)OCC(=O)NCCNC(=O)COC(=O)CSc1ccccc1C`, the “hERG current change (%, negative = inhibition) at 1uM” value falls from 16.7% to -3.06%.

First: CCOc1nc(CC(C)C)c2c(c1C#N)CC(C)(C)OC2
Second: Cc1nc2c(C#N)cnn2c2c1CCN2CC1CCCO1 (centres unmarked)
The “hERG current change (%, negative = inhibition) at 1uM” value of the first is higher: 7.65% for the first, 0.18% for the second.

Going from `CN1C[C@H](CO)C=C2c3cccc4[nH]cc(c34)C[C@H]21` to `O=C(O)CN1C(=O)NC2(CCc3ccccc32)C1=O` (centres unmarked), the “hERG current change (%, negative = inhibition) at 1uM” value rises from 9.33% to 14.3%.

Compared with `COc1ccc(N2CCN(C(=O)C3CCCN(S(=O)(=O)c4ccc5c(c4)oc(=O)n5C)C3)CC2)cc1` (centres unmarked), `Cn1c(=O)oc2cc(S(=O)(=O)N3CCN(c4ccc(F)cc4)CC3)ccc21` is lower in “hERG current change (%, negative = inhibition) at 1uM” value: 10.3% for the first, -1.74% for the second.

First: CN1CCN(S(=O)(=O)CC2(C)C3CCC2(C)C(=O)C3Br)CC1 (centres unmarked)
Second: COc1cccc(N2C(=O)C3CCCN3C2c2ccc(Cl)cc2)c1 (centres unmarked)
The “hERG current change (%, negative = inhibition) at 1uM” value of the first is higher: 12.8% for the first, 7.82% for the second.

Going from `Cc1ccc(N=C(N(C)C)P(=O)(N(C)C)N(C)C)cc1` to `O=S(=O)(NCc1ccc2c(c1)OCO2)c1ccccc1F`, the “hERG current change (%, negative = inhibition) at 1uM” value falls from 13.6% to 13.5%.

Compared with `Cc1c(NC(=O)CSc2nc3c(cnn3-c3ccccc3)c(=O)[nH]2)c(=O)n(-c2ccccc2)n1C`, `S=C(Nc1ccccc1)N1CCc2ccccc21` is lower in “hERG current change (%, negative = inhibition) at 1uM” value: 15.6% for the first, 7.86% for the second.

First: Cc1cc(=O)oc2c(C(=O)/C=C\c3cccs3)c(O)ccc12
Second: COc1ccccc1C1CC(=O)Nc2cc3c(cc21)OCCO3 (centres unmarked)
The “hERG current change (%, negative = inhibition) at 1uM” value of the first is higher: 9.2% for the first, 6.33% for the second.

First: CNC(=S)N/N=C/c1ccc(N2CCOCC2)s1
Second: N#Cc1c(/N=C/N2CCOCC2)sc2c1CCCCC2
The “hERG current change (%, negative = inhibition) at 1uM” value of the first is higher: 22.3% for the first, 3.12% for the second.

With `Brc1ccc(CSc2ccc3nnc(-c4ccccn4)n3n2)cc1` the “hERG current change (%, negative = inhibition) at 1uM” value was -12.7%.
